Source: DBAASP

Assays:
Test in all cases: ≥ marks a high value that may be exact or a test limit, other limits are often not marked
[1] = test system: Burkholderia cepacia ATCC 25416
[2] = test system: Candida glabrata ATCC 2001
[3] = test system: Candida tropicalis ATCC 20115
[4] = test system: Enterobacter cloacae ATCC 13047
[5] = test system: Enterococcus faecalis ATCC 29212
[6] = test system: Escherichia coli DH5alpha
[7] = test system: Flavobacterium sp. PAMC 22217
[8] = test system: Lacinutrix algicola AKS293T
[9] = test system: Listeria monocytogenes ATCC 15313
[10] = test system: Pseudomonas aeruginosa ATCC 15442
[11] = test system: Psychrobacter sp. PAMC 21119
[12] = test system: Shigella sonnei ATCC 29930
[13] = test system: Staphylococcus aureus ATCC 33591
[14] = test system: Streptococcus pyogenes ATCC 19615
Escherichia coli = test system: Escherichia coli
Listeria innocua = test system: Listeria innocua
Micrococcus luteus A270 = test system: Micrococcus luteus A270
[15] = test system: Salmonella enterica subsp. enterica serovar Enteritidis

MIC [1] [µM]	MIC [2] [µM]	MIC [3] [µM]	MIC [4] [µM]	MIC [5] [µM]	MIC [6] [µM]	MIC [7] [µM]	MIC [8] [µM]	MIC [9] [µM]	MIC [10] [µM]	MIC [11] [µM]	MIC [12] [µM]	MIC [13] [µM]	MIC [14] [µM]	MIC (Escherichia coli) [µM]	MIC (Listeria innocua) [µM]	MIC (Micrococcus luteus A270) [µM]	MIC [15] [µM]	Compound
≥ 50	≥ 50	5 (≈ 12.4 µg/mL)	≥ 50	> 50	12.5 (≈ 31.1 µg/mL)	5 (≈ 12.4 µg/mL)	12.5 (≈ 31.1 µg/mL)	12.5 (≈ 31.1 µg/mL)	≥ 50	2.5 (≈ 6.22 µg/mL)	12.5 (≈ 31.1 µg/mL)	25 (≈ 62.2 µg/mL)	25 (≈ 62.2 µg/mL)	–	–	–	–	CC[C@H](C)[C@H](NC(=O)[C@H](Cc1cnc[nH]1)NC(=O)[C@H](Cc1cnc[nH]1)NC(=O)[C@H](Cc1c[nH]c2ccccc12)NC(=O)[C@H](Cc1ccccc1)NC(=O)[C@@H](N)Cc1ccccc1)C(=O)NCC(=O)N[C@@H](Cc1cnc[nH]1)C(=O)N[C@@H](C)C(=O)N[C@@H](CC(C)C)C(=O)N[C@@H](CC(=O)O)C(=O)N[C@@H](C)C(=O)N[C@@H](C)C(=O)N[C@@H](CCCCN)C(=O)N[C@@H](CCCN=C(N)N)C(=O)N[C@H](C(=O)N[C@@H](Cc1cnc[nH]1)C(=O)NCC(=O)N[C@@H](CCSC)C(=O)N[C@@H](CC(C)C)C(=O)N[C@@H](CO)C(=O)NCC(N)=O)C(C)C [FFWHHIGHALDAAKRVHGMLSG]
–	–	–	–	–	–	–	–	–	–	–	–	–	–	73 (≈ 207 µg/mL)	≥ 37	9 (≈ 25.5 µg/mL)	≥ 37	CC(C)C[C@H](NC(=O)[C@H](Cc1ccccc1)NC(=O)[C@H](CCCCN)NC(=O)[C@H](CC(=O)O)NC(=O)[C@H](CC(C)C)NC(=O)[C@H](CO)NC(=O)[C@H](C)NC(=O)[C@H](Cc1cnc[nH]1)NC(=O)[C@@H](NC(=O)[C@H](C)NC(=O)[C@@H]1CCCN1C(=O)[C@@H](NC(=O)[C@H](Cc1ccccc1)NC(=O)[C@H](CC(=O)O)NC(=O)[C@H](CO)NC(=O)[C@@H]1CCCN1C(=O)[C@H](CC(C)C)NC(=O)[C@H](Cc1cnc[nH]1)NC(=O)[C@H](CO)NC(=O)[C@H](C)NC(=O)[C@H](CC(C)C)NC(=O)[C@@H](NC(=O)[C@@H](N)C(C)C)[C@@H](C)O)[C@@H](C)O)C(C)C)C(=O)N[C@@H](C)C(=O)N[C@@H](CC(N)=O)C(=O)N[C@H](C(=O)N[C@@H](CO)C(=O)O)C(C)C [VTLASHLPSDFTPAVHASLDKFLANVS]

In brackets after ≈: the same amount, converted by molar mass.
